T/C data for three molecules are collected here from PubChem BioAssay AID248 (DTP/NCI, 2004).

The test system of this assay is L1210 leukemia ip in BDF1 mice, survival T/C. Description: NCI In Vivo Anticancer Drug Screen. Data for tumor model L1210 Leukemia (intraperitoneal) in B6D2F1 (BDF1) mice. To be noted: endpoint: mean survival time, higher = longer survival.

Each structure is given as a SMILES string. Toxic doses and inconclusive results are not listed. For part of its entries the source gives two or more results. This list holds those alone. There may be further records. The values listed for one entry differ for a reason that is not stated; dose, time, organism, isomer or construct need not be as stated for each record.

Consider `CC[CH2][Sn]([Cl])([Cl])[CH2]CC.Oc1ccccc1C=NCCN=Cc1ccccc1O`, for which the T/C (dose: 10.0 mg/kg/injection, schedule: Q01DX009 (ip), vehicle: saline with Tween-80) was 114 % of control and 200 % of control.

With `NC(=O)c1cn(C2OC(CO)C(O)C2O)c2ncnc(N)c12` (centres undefined), the T/C (dose: 1.0 mg/kg/injection, schedule: Q## X003 (ip), vehicle: saline) is 113 % of control and 155 % of control; the T/C (dose: 4.0 mg/kg/injection, schedule: Q## X003 (ip), vehicle: saline) was 124 % of control and 184 % of control.

Turning to `COc1cc(NS(C)(=O)=O)ccc1Nc1c2ccccc2nc2c(C)cccc12`, the T/C (dose: 10.0 mg/kg/injection, schedule: Q01DX009 (ip), vehicle: saline) is 86 % of control and 179 % of control.
